# Laboratory results: the supplement of paper PMC10037445
# Values joined by “and” are separate entries in the source; they are usually repeats but may differ in a detail not shown here. Identical values can stand only once. In all, about 2,900 compounds were measured (“NF-kB SEAP reporter activity, fold change vs agonist alone”: median about 0.99, highest 2% from about 2.6 on). This is one part of the list.
# What was measured:
# [1] = tested on: RAW-Dual; assay: NF-kB SEAP reporter activity, fold change vs agonist alone; higher = enhanced NF-kB activity
# Method in brief: (§1)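 RAW-Dual macrophages (50,000 cells/well in DMEM, 384-well plates) received 50 nL of library stock by pin tool, then a PRR agonist 1 h later, and were kept at 37 °C, 5% CO2. After 20 hours, supernatant was read for IRF by QuantiLuc luminescence and for NF-κB by QuantiBlue absorbance at 620 nm. Reporter activity is fold change over agonist-alone wells. Cytotoxic wells had IncuCyte confluency below 70% of agonist controls in both mask sets.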
# [2] = tested on: RAW-Dual; assay: NF-kB SEAP reporter activity, fold change vs agonist alone; cytotoxicity flag (confluency mask): not cytotoxic; higher = enhanced NF-kB activity
# Method in brief: as §1
# [3] = tested on: RAW-Dual; assay: NF-kB SEAP reporter activity, fold change vs agonist alone; cytotoxicity flag (confluency mask): cytotoxic (confluency <70% of control); higher = enhanced NF-kB activity
# Method in brief: as §1
# [4] = library stock concentration (final ~1000-fold dilution): 10 mM, cytotoxicity flag (confluency mask): not cytotoxic, agonist: Imiquimod (TLR7) […]
# [5] = library stock concentration (final ~1000-fold dilution): 10 mM, cytotoxicity flag (confluency mask): not cytotoxic, agonist: MPLA (TLR4) […]
# [6] = agonist: ODN 1826 (TLR9) 0.5 ug/mL
# [7] = agonist: Pam2CSK4 (TLR2/6) 0.1 ug/mL
# [8] = agonist: Pam3CSK4 (TLR2/1) 0.1 ug/mL
smiles,measurement,setting,value
CN(C(=O)CCCOc1ccc2[nH]c(=O)ccc2c1)C1CCCCC1,NF-kB SEAP reporter activity,[1]; [4],1.02
same,NF-kB SEAP reporter activity,[1]; [5],1.19
CN(C(=O)CCCOc1ccc2[nH]c(=O)ccc2c1)C1CCCCC1 (library stock concentration (final ~1000-fold dilution): 10 mM),NF-kB SEAP reporter activity,[2]; agonist: LPS (TLR4) 0.1 ug/mL,1.96
same,NF-kB SEAP reporter activity,[2]; [6],1.05
same,NF-kB SEAP reporter activity,[2]; [7],0.987
same,NF-kB SEAP reporter activity,[2]; [8],1.28
NNC(=O)c1ccncc1,NF-kB SEAP reporter activity,[1]; [4],0.948
same,NF-kB SEAP reporter activity,[1]; [5],1.05
NNC(=O)c1ccncc1 (library stock concentration (final ~1000-fold dilution): 10 mM),NF-kB SEAP reporter activity,[2]; agonist: LPS (TLR4) 0.1 ug/mL,1.22
same,NF-kB SEAP reporter activity,[2]; [6],1.05
same,NF-kB SEAP reporter activity,[2]; [7],1.09
same,NF-kB SEAP reporter activity,[2]; [8],1.05
Nc1cc(C(F)(F)F)c(-c2nc(N3CCOCC3)nc(N3CCOCC3)n2)cn1 (library stock concentration (final ~1000-fold dilution): 10 mM),NF-kB SEAP reporter activity,[2]; agonist: LPS (TLR4) 0.1 ug/mL,0.943
same,NF-kB SEAP reporter activity,[2]; [6],0.711
same,NF-kB SEAP reporter activity,[2]; [7],0.402
same,NF-kB SEAP reporter activity,[2]; [8],0.503
Nc1cc(C(F)(F)F)c(-c2nc(N3CCOCC3)nc(N3CCOCC3)n2)cn1,NF-kB SEAP reporter activity,[1]; [4],0.783
same,NF-kB SEAP reporter activity,[1]; [5],1.11
CCN1CCCC1CNC(=O)c1cc(S(N)(=O)=O)ccc1OC (centres undefined),NF-kB SEAP reporter activity,[1]; [4],1.01
CCN1CCCC1CNC(=O)c1cc(S(N)(=O)=O)ccc1OC (centres undefined) (library stock concentration (final ~1000-fold dilution): 10 mM),NF-kB SEAP reporter activity,[2]; agonist: LPS (TLR4) 0.1 ug/mL,1.32 and 0.858
same,NF-kB SEAP reporter activity,[2]; [6],0.962 and 0.982
same,NF-kB SEAP reporter activity,[2]; [7],1.2 and 0.846
same,NF-kB SEAP reporter activity,[2]; [8],1.12 and 0.924
Cl.Nc1c2c(nc3ccccc13)CCCC2,NF-kB SEAP reporter activity,[1]; [4],0.964
same,NF-kB SEAP reporter activity,[1]; [5],1.03
Cl.Nc1c2c(nc3ccccc13)CCCC2 (library stock concentration (final ~1000-fold dilution): 10 mM),NF-kB SEAP reporter activity,[2]; agonist: LPS (TLR4) 0.1 ug/mL,0.972
same,NF-kB SEAP reporter activity,[2]; [6],0.271
same,NF-kB SEAP reporter activity,[2]; [7],1
same,NF-kB SEAP reporter activity,[2]; [8],0.924
CN1CCN(c2ccc3nc(-c4c(N)c5c(F)cccc5[nH]c4=O)[nH]c3c2)CC1 (library stock concentration (final ~1000-fold dilution): 10 mM),NF-kB SEAP reporter activity,[2]; agonist: LPS (TLR4) 0.1 ug/mL,0.554
same,NF-kB SEAP reporter activity,[2]; [6],0.231
same,NF-kB SEAP reporter activity,[2]; [7],0.388
same,NF-kB SEAP reporter activity,[2]; [8],0.449
CN1CCN(c2ccc3nc(-c4c(N)c5c(F)cccc5[nH]c4=O)[nH]c3c2)CC1,NF-kB SEAP reporter activity,[1]; [4],0.963
same,NF-kB SEAP reporter activity,[1]; [5],0.962
O=C(Oc1coc(CSc2ncccn2)cc1=O)c1ccc([N+](=O)[O-])cc1,NF-kB SEAP reporter activity,[1]; [4],0.717
same,NF-kB SEAP reporter activity,[1]; [5],1.01
O=C(Oc1coc(CSc2ncccn2)cc1=O)c1ccc([N+](=O)[O-])cc1 (library stock concentration (final ~1000-fold dilution): 10 mM),NF-kB SEAP reporter activity,[2]; agonist: LPS (TLR4) 0.1 ug/mL,1.26
same,NF-kB SEAP reporter activity,[2]; [6],0.944
same,NF-kB SEAP reporter activity,[2]; [7],1.19
same,NF-kB SEAP reporter activity,[2]; [8],0.981
COc1ccccc1Oc1c(NS(=O)(=O)c2ccc(C(C)(C)C)cc2)nc(-c2ncccn2)nc1OCCO.O (library stock concentration (final ~1000-fold dilution): 10 mM),NF-kB SEAP reporter activity,[2]; agonist: LPS (TLR4) 0.1 ug/mL,1.15
same,NF-kB SEAP reporter activity,[2]; [6],1.01
same,NF-kB SEAP reporter activity,[2]; [7],1.06
same,NF-kB SEAP reporter activity,[2]; [8],1.1
COc1ccccc1Oc1c(NS(=O)(=O)c2ccc(C(C)(C)C)cc2)nc(-c2ncccn2)nc1OCCO.O,NF-kB SEAP reporter activity,[1]; [4],1.02
same,NF-kB SEAP reporter activity,[1]; [5],1.1
CN(Cc1cnc2nc(N)nc(N)c2n1)c1ccc(C(=O)NC(CCC(=O)O)C(=O)O)cc1 (centres undefined),NF-kB SEAP reporter activity,"[1]; library stock concentration (final ~1000-fold dilution): 10 mM water, cytotoxicity flag (confluency mask): not cytotoxic, agonist: MPLA (TLR4) […]",1.04
same,NF-kB SEAP reporter activity,"[1]; library stock concentration (final ~1000-fold dilution): 10 mM, cytotoxicity flag (confluency mask): cytotoxic (confluency <70% of control), agonist: Imiquimod (TLR7) […]",0.759
same,NF-kB SEAP reporter activity,"[1]; library stock concentration (final ~1000-fold dilution): 10 mM, cytotoxicity flag (confluency mask): cytotoxic (confluency <70% of control), agonist: MPLA (TLR4) […]",0.906
CN(Cc1cnc2nc(N)nc(N)c2n1)c1ccc(C(=O)NC(CCC(=O)O)C(=O)O)cc1 (centres undefined) (library stock concentration (final ~1000-fold dilution): 10 mM),NF-kB SEAP reporter activity,[3]; agonist: LPS (TLR4) 0.1 ug/mL,1.23
same,NF-kB SEAP reporter activity,[3]; [6],0.724
same,NF-kB SEAP reporter activity,[3]; [7],0.558
same,NF-kB SEAP reporter activity,[3]; [8],0.342
